Source: publication PMC5098186, “Nuclear import of dimerized ribosomal protein Rps3 in complex with its chaperone Yar1” (Scientific Reports, 2016)
Results are given in words; binding and its absence hold for the method and conditions named. For some assays here: In cells and extracts the contact can be indirect. Some binding calls cover weakened binding; strength is not graded here. For some assays here: Tags and fused reporters may be left off the sequences shown. One block for each molecule: values may come before it.

Amino acid sequences for entries named in this document (tags omitted).
UniProt Q06142: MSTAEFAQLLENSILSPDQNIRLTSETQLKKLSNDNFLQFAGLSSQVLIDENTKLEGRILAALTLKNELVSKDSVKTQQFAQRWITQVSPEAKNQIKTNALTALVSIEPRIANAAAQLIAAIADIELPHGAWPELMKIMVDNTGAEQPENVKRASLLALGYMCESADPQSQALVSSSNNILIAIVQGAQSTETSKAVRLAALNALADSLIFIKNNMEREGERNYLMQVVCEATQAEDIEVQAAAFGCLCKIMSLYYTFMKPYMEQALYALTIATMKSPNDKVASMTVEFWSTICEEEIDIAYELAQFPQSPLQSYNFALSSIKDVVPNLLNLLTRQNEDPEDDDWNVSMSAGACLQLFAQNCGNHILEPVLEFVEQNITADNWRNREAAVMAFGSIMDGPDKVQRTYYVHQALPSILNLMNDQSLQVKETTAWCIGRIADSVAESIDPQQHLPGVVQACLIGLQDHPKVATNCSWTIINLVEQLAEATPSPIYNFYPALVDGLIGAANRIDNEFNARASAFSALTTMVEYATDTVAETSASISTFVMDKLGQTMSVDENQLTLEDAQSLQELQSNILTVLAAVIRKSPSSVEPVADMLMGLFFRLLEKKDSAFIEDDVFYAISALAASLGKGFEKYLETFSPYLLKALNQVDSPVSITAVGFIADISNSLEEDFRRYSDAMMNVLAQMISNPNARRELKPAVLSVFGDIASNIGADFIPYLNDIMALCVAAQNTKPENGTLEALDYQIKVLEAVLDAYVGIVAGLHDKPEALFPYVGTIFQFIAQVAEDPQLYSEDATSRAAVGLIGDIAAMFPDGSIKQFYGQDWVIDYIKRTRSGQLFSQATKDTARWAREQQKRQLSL

Assays:
Rps3-TAP (S. cerevisiae) = biological target: T1, Rps3-TAP (S. cerevisiae) (UniProt P05750); test: co-IP; tandem affinity purification (TAP) from yeast lysate via the TAP-tagged bait; final eluates analysed by SDS-PAGE with Coomassie staining or Western blotting; strain without TAP-tag as negative control
T1 sequence: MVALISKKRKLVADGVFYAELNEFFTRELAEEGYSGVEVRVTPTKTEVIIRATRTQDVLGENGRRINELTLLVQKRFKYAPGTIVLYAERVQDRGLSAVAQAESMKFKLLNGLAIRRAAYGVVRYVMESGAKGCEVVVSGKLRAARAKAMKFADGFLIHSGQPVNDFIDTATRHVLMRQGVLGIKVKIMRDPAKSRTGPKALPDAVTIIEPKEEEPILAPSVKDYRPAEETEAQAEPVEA

[1] = biological target: T2, Rps3-Flag (S. cerevisiae) (UniProt P05750); test: co-IP; split-tag two-step affinity purification from yeast lysate: first via the protein A tag of Yar1-TAP (TEV eluate), then via Rps3-Flag; final eluate analysed by Coomassie staining or Western blotting; untagged wild-type strain as negative control
T2 sequence: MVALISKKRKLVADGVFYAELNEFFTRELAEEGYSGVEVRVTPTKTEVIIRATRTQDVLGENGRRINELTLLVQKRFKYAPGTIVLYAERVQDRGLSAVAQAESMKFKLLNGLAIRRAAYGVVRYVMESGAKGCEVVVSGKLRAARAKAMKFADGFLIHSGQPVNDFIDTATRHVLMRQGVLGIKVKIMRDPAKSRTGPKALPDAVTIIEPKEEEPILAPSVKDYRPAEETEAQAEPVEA

GST-Kap60ΔIBB = biological target: T3, GST-Kap60ΔIBB (S. cerevisiae, UniProt Q02821 81-542); test: pull-down; GST-tagged importins immobilized on glutathione-agarose beads, incubated with purified His6-Rps3/Flag-Yar1 complex or purified Flag-Yar1; 50 mM Tris pH 7.5, 150 mM NaCl, 1 mM DTT; eluted by boiling (Fig. 2b, Supplementary Fig. S2) or by TEV cleavage (Fig. 2c); Coomassie staining or Western blotting; both purified
T3 construct: Kap60/Srp1 (importin α) of S. cerevisiae lacking the N-terminal IBB domain (80 amino acids); GST can be removed with TEV protease; also called GST-tagged Kap60ΔIBB; source: E. coli BL21 (DE3) Rosetta Star, immobilized on glutathione-agarose beads
T3 sequence (looked up): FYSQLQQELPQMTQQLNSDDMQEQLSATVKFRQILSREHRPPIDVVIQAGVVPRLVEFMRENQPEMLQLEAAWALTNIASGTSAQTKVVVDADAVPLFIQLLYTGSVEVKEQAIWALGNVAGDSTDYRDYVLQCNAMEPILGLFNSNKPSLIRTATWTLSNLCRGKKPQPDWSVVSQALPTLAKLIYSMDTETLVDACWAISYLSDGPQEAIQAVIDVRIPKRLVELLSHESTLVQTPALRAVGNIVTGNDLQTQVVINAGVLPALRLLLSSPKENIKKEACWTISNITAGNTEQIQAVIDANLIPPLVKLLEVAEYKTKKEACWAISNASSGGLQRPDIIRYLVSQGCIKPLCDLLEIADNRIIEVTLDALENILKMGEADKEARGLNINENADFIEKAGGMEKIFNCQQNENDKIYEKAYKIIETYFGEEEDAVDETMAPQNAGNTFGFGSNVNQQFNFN

Yar1-TAP (S. cerevisiae) [2] = biological target: T4, Yar1-TAP (S. cerevisiae) (UniProt P46683); test: co-IP; tandem affinity purification (TAP) from yeast lysate via the TAP-tagged bait; final eluates analysed by SDS-PAGE with Coomassie staining or Western blotting; strain without TAP-tag as negative control
T4 sequence: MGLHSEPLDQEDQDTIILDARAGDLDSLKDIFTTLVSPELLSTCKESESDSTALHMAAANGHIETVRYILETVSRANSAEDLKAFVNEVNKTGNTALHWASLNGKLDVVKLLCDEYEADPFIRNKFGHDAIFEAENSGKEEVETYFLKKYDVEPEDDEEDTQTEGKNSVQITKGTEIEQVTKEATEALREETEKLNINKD

Yar1-TAP (S. cerevisiae) [3] = biological target: T4, Yar1-TAP (S. cerevisiae); test: co-IP; split-tag two-step affinity purification from yeast lysate: first via the protein A tag of Yar1-TAP (TEV eluate), then via Rps3-Flag; final eluate analysed by Coomassie staining or Western blotting; untagged wild-type strain as negative control
GST-Kap123 = biological target: T5, GST-Kap123 (S. cerevisiae, UniProt P40069 1-1113); test: pull-down; GST-tagged importins immobilized on glutathione-agarose beads, incubated with purified His6-Rps3/Flag-Yar1 complex or purified Flag-Yar1; 50 mM Tris pH 7.5, 150 mM NaCl, 1 mM DTT; eluted by boiling (Fig. 2b, Supplementary Fig. S2) or by TEV cleavage (Fig. 2c); Coomassie staining or Western blotting; both purified
T5 construct: Kap123 (karyopherin β4) of S. cerevisiae, recombinant; also called GST-tagged Kap123; source: E. coli BL21 (DE3) Rosetta Star, immobilized on glutathione-agarose beads
T5 sequence (looked up): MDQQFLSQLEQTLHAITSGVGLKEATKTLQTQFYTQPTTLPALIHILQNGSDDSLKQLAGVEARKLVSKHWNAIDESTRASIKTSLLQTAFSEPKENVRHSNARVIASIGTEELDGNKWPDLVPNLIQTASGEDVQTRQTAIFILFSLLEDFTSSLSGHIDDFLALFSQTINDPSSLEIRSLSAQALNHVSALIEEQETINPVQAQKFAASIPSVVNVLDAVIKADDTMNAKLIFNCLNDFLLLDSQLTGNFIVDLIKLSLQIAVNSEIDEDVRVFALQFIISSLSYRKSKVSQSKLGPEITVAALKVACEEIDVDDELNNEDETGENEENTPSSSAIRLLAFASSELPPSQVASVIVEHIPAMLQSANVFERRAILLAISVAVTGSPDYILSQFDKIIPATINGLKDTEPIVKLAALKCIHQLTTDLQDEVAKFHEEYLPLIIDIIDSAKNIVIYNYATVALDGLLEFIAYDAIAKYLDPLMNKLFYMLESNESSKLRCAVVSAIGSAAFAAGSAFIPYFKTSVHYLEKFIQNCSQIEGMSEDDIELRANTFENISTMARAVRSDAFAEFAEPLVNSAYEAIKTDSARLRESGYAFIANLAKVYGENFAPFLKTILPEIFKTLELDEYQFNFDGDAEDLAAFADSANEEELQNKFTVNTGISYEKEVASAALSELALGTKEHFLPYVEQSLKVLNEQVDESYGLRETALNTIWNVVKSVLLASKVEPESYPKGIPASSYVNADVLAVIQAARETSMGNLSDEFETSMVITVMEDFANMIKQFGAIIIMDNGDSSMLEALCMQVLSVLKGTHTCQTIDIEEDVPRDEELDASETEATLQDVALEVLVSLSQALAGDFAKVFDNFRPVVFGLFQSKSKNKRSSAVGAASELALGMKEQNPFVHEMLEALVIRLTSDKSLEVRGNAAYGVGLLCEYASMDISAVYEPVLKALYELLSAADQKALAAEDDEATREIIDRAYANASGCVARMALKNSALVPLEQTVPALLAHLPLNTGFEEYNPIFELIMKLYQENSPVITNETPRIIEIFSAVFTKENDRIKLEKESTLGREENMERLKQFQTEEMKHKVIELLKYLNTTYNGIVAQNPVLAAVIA

- binding (Rps3-TAP (S. cerevisiae)): binds
Molecule: Kap60-3xHA (from UniProt Q02821 1-542)

- binding [1]: binds
Molecule: Kap60 (from UniProt Q02821 1-542)

- binding [1]: binds
Molecule: Kap95 (from UniProt Q06142 1-861)

- binding (GST-Kap60ΔIBB): binds weakly
B1: His6-Rps3(K7/K10>A) (protein, UniProt P05750 1-240)
chain: MVALISAKRALVADGVFYAELNEFFTRELAEEGYSGVEVRVTPTKTEVIIRATRTQDVLGENGRRINELTLLVQKRFKYAPGTIVLYAERVQDRGLSAVAQAESMKFKLLNGLAIRRAAYGVVRYVMESGAKGCEVVVSGKLRAARAKAMKFADGFLIHSGQPVNDFIDTATRHVLMRQGVLGIKVKIMRDPAKSRTGPKALPDAVTIIEPKEEEPILAPSVKDYRPAEETEAQAEPVEA

- binding (Yar1-TAP (S. cerevisiae) [2]): binds
B2: Rps3 (protein, UniProt P05750 1-240)
chain: MVALISKKRKLVADGVFYAELNEFFTRELAEEGYSGVEVRVTPTKTEVIIRATRTQDVLGENGRRINELTLLVQKRFKYAPGTIVLYAERVQDRGLSAVAQAESMKFKLLNGLAIRRAAYGVVRYVMESGAKGCEVVVSGKLRAARAKAMKFADGFLIHSGQPVNDFIDTATRHVLMRQGVLGIKVKIMRDPAKSRTGPKALPDAVTIIEPKEEEPILAPSVKDYRPAEETEAQAEPVEA

- binding (Yar1-TAP (S. cerevisiae) [3]): binds
B3: Rps3-Flag (protein, UniProt P05750 1-240)
chain: MVALISKKRKLVADGVFYAELNEFFTRELAEEGYSGVEVRVTPTKTEVIIRATRTQDVLGENGRRINELTLLVQKRFKYAPGTIVLYAERVQDRGLSAVAQAESMKFKLLNGLAIRRAAYGVVRYVMESGAKGCEVVVSGKLRAARAKAMKFADGFLIHSGQPVNDFIDTATRHVLMRQGVLGIKVKIMRDPAKSRTGPKALPDAVTIIEPKEEEPILAPSVKDYRPAEETEAQAEPVEA

- binding (GST-Kap60ΔIBB): no binding
- binding (GST-Kap123): no binding
B4: Flag-Yar1 (natural protein, S. cerevisiae, UniProt P46683 1-200, looked up)
chain: MGLHSEPLDQEDQDTIILDARAGDLDSLKDIFTTLVSPELLSTCKESESDSTALHMAAANGHIETVRYILETVSRANSAEDLKAFVNEVNKTGNTALHWASLNGKLDVVKLLCDEYEADPFIRNKFGHDAIFEAENSGKEEVETYFLKKYDVEPEDDEEDTQTEGKNSVQITKGTEIEQVTKEATEALREETEKLNINKD
notes: Yar1, specific chaperone of Rps3, S. cerevisiae, recombinant
